Results taken from PMC4336329 (PLoS ONE, 2015).
Among all 310,000 compounds or so, about 14,000 (4.5%) showed an effect of 50% or more. Effects have a minus sign here. Some of the results follow.

These compounds were tested against human ether-à-go-go-related gene (hERG) potassium channel (human, UniProt Q12809) (assay: primary screen, population patch clamp on CHO cells stably expressing hERG).
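Also: peak tail current of the secondary pulse compared with the same well before compound.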

Sequence of human ether-à-go-go-related gene (hERG) potassium channel (Q12809 whole entry, looked up): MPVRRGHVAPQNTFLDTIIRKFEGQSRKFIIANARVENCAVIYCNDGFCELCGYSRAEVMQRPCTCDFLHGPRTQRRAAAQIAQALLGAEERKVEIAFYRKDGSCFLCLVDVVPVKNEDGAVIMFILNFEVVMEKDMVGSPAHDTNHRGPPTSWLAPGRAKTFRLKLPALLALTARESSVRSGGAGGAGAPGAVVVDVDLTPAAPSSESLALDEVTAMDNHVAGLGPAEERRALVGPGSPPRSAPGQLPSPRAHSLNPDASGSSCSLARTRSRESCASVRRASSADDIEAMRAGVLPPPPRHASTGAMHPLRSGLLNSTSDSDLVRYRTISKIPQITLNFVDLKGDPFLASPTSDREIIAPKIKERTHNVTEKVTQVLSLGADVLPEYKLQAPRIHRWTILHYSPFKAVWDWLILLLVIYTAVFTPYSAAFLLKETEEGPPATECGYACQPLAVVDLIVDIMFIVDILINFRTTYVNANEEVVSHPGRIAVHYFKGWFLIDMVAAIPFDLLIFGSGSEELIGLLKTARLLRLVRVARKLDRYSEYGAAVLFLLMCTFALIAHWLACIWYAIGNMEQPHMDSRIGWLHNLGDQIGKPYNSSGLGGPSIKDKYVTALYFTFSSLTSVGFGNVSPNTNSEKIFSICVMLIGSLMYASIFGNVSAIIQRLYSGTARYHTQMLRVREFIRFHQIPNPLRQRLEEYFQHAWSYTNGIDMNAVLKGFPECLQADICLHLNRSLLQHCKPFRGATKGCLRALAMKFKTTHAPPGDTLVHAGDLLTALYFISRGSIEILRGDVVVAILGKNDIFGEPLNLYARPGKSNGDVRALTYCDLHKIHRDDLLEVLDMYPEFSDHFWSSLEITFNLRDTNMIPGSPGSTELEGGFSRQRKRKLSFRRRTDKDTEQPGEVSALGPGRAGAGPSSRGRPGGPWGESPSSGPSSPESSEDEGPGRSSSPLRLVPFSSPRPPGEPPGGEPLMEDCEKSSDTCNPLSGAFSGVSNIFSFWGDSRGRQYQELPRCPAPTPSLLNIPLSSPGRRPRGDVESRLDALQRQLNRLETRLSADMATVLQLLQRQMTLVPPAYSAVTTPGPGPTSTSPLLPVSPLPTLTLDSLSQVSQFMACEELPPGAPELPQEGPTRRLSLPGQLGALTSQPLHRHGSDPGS

Compared with COC(=O)C1=C(C)Nc2c(c(=O)n(C)c(=O)n2C)C1c1cccnc1 (stereo not drawn), CCOC(=O)Cn1nc2sc3ccccc3n2c(=O)c1=O is higher in “hERG current change (%, negative = inhibition) at 10uM” value: -2.61% for the first, 10.6% for the second.

First: CCOCC(=O)Nc1ccc(C)c(Cl)c1
Second: CCn1c(SCC(=O)Nc2ccc3[nH]c(=O)[nH]c3c2)nnc1-c1ccccc1
The “hERG current change (%, negative = inhibition) at 10uM” value of the first is higher: -0.343% for the first, -16.1% for the second.

Going from c1cc(C(c2nnnn2C2CCCC2)N2CCOCC2)ccn1 (stereo not drawn) to CC(C)CNC(=O)C1CCN(c2ccc(S(=O)(=O)N3CCOCC3)cc2)CC1, the “hERG current change (%, negative = inhibition) at 10uM” value falls from 0.132% to -5.95%.

First: CN(Cc1ccccc1)C(=O)c1ncn(C)c1C(=O)N(C)Cc1ccccc1
Second: Cc1ccccc1C(=O)c1cccn1CC(=O)NCC(C)c1ccccc1 (stereo not drawn)
The “hERG current change (%, negative = inhibition) at 10uM” value of the first is higher: 8.39% for the first, -20.3% for the second.

Going from Cc1ccc(S(=O)(=O)NCCCNS(=O)(=O)c2ccccc2)cc1 to O=C1c2ccccc2CN1CCNS(=O)(=O)c1ccc2ccccc2c1, the “hERG current change (%, negative = inhibition) at 10uM” value rises from -7.76% to -3.08%.

Going from Clc1ccc(-c2onc3c2CCCC3)cc1 to COCC(=O)n1nc(-c2ccc(Cl)cc2)nc1NCc1ccc(F)cc1, the “hERG current change (%, negative = inhibition) at 10uM” value falls from 6.27% to 2.39%.

First: CCCCNC(=S)NC(C)(C)CO
Second: CCCCC(=O)NC(NC(=S)N1CCCCCC1)C(Cl)(Cl)Cl (stereo not drawn)
The “hERG current change (%, negative = inhibition) at 10uM” value of the first is lower: 11.8% for the first, 19.5% for the second.

Going from COCCn1c(C2CCCCC2)nc2sc3ccccc3c(=O)c2c1=O to COCCN(C(=O)CCCc1nc2ccccc2s1)c1c(N)n(CC(C)C)c(=O)[nH]c1=O, the “hERG current change (%, negative = inhibition) at 10uM” value rises from -5.29% to 15.1%.

First: CCNc1nc(NC(C)C)nc(N(C#N)C(C)C(=O)N(CC)CC)n1 (stereo not drawn)
Second: Cc1nc2c(C(=O)NCCC(C)C)c[nH]n2c(=O)c1Cc1ccccc1F
The “hERG current change (%, negative = inhibition) at 10uM” value of the first is lower: -19.9% for the first, -1.66% for the second.

Going from CC(C)(C)N(Cc1ccccc1)C(=O)COc1cccnc1[N+](=O)[O-] to COc1cccc(OC)c1C(=O)OCC(=O)N(C)c1ccccc1, the “hERG current change (%, negative = inhibition) at 10uM” value falls from 8.46% to 7.96%.

Compared with CCn1cc(CN2CCC(n3nccc3NC(=O)CCOc3ccccc3)CC2)c(C)n1, CCC(=O)N1CCN(c2ccccc2NC(=O)COc2cc(C)ccc2C(C)C)CC1 is lower in “hERG current change (%, negative = inhibition) at 10uM” value: 7.84% for the first, -27% for the second.

Compared with Cc1cc2c(cc1S(=O)(=O)NCc1ccc(N(C)C)cc1)OCC(=O)N2, CCc1ccc(NC(=O)c2ccc(F)c(S(=O)(=O)NCC3COc4ccccc4O3)c2)cc1 (stereo not drawn) is higher in “hERG current change (%, negative = inhibition) at 10uM” value: -25.7% for the first, -14.3% for the second.

First: Cc1ccc(Sc2ncccc2/C=N/O)cc1
Second: Cc1nccnc1Sc1ccccc1
The “hERG current change (%, negative = inhibition) at 10uM” value of the first is lower: -33.9% for the first, 22.4% for the second.

Going from CCOC(=O)C1(Cc2cccc(F)c2)CCN(CCCn2cccn2)CC1 to Fc1cccc(Cc2noc(CN3CCOCC3)n2)c1, the “hERG current change (%, negative = inhibition) at 10uM” value rises from -74.6% to 11.4%.

Going from COCCCN(C(=S)Nc1cccc(Cl)c1)C(C)c1ccncc1 (stereo not drawn) to Cc1ccccc1C(O)c1ccncc1 (stereo not drawn), the “hERG current change (%, negative = inhibition) at 10uM” value rises from -17.3% to 1.43%.

Going from COc1ccc(C(C(=O)NCC2CCCO2)N(Cc2ccccc2)C(=O)c2snc(C(N)=O)c2N)cc1OC (stereo not drawn) to COc1ccc(CN(C(=O)c2snc(C(N)=O)c2N)C(C(=O)NC(C)(C)C)c2ccco2)cc1 (stereo not drawn), the “hERG current change (%, negative = inhibition) at 10uM” value falls from 8.27% to -3.85%.

First: NC(=O)[C@@H]1CCCN1Cc1nc(Cc2ccccc2Cl)no1
Second: O=C(Nc1ccccc1Cl)N1CCn2c(nc3ccccc32)C1
The “hERG current change (%, negative = inhibition) at 10uM” value of the first is higher: 14.5% for the first, -8.42% for the second.

Compared with Cc1ccc(CSCC2Nc3ccc(C(=O)N4CCN(c5cccc(C)c5)C(C)C4)cc3NC2=O)cc1 (stereo not drawn), Cc1ccc(N2CCN(C(=S)c3ccc(N(C)C)cc3)CC2)cc1 is lower in “hERG current change (%, negative = inhibition) at 10uM” value: 28.9% for the first, -6.33% for the second.

Going from O=C(NCCOc1ccccc1F)c1cc([N+](=O)[O-])ccc1N1CCOCC1 to COC(=O)c1cc(NC(=S)NC(=O)c2ccccc2)ccc1N1CCOCC1, the “hERG current change (%, negative = inhibition) at 10uM” value rises from -45.1% to -27.1%.

Compared with CCOc1ccc(N2C(=O)S/C(=C\c3ccc(O)c(OC)c3)C2=O)cc1, COc1cc(-n2c(=O)c3ccccc3n(Cc3ccccc3)c2=O)cc(OC)c1OC is lower in “hERG current change (%, negative = inhibition) at 10uM” value: 13.3% for the first, -2.73% for the second.

First: N#CCc1ccc(C(=O)c2ccccc2)s1
Second: O=C(COc1ccccc1)NNC(=S)NC(=O)c1ccccc1
The “hERG current change (%, negative = inhibition) at 10uM” value of the first is lower: -4.52% for the first, 16.5% for the second.

First: Cc1c(C(=O)NCc2ccco2)oc2c(Cl)cccc12
Second: CCN1C(=O)c2ccc(C(=O)NCc3ccco3)cc2C1=O
The “hERG current change (%, negative = inhibition) at 10uM” value of the first is higher: 14.5% for the first, 0.978% for the second.

Compared with CC(C)CCNC(=O)C1CCC(CNS(=O)(=O)c2ccc(Cl)cc2)CC1 (stereo not drawn), CC(=O)Nc1ccc(S(=O)(=O)N2CCC(C(=O)NCCC(=O)Nc3ccccc3)CC2)cc1 is lower in “hERG current change (%, negative = inhibition) at 10uM” value: 19.6% for the first, 16.9% for the second.

Compared with CCc1nccn1S(=O)(=O)c1ccc(C)c(C)c1, C=CCN=C1SC(CC)C(=O)N1S(=O)(=O)c1ccc(C)cc1 (stereo not drawn) is higher in “hERG current change (%, negative = inhibition) at 10uM” value: 5.21% for the first, 6.92% for the second.

Compared with Cc1nnc(Sc2nc3c(c(=O)[nH]c(=O)n3C)n2CCc2ccccc2)s1, CCc1nnc(NC(=O)CSc2nnc(C)n2Cc2ccccc2)s1 is higher in “hERG current change (%, negative = inhibition) at 10uM” value: -21.4% for the first, -1.03% for the second.

First: Cc1ccc(Cl)c(OCC(=O)OCC(=O)NC2CCCc3ccccc32)c1 (stereo not drawn)
Second: Cc1ccccc1C(=O)N(CC(=O)Nc1sc(C)c(C)c1C(N)=O)C1CCCC1
The “hERG current change (%, negative = inhibition) at 10uM” value of the first is higher: 12.2% for the first, -10.6% for the second.

First: Cc1ccc(S(=O)(=O)N2CCOCC2)cc1NC(=O)COC(=O)c1ccc(OCc2c(C)noc2C)cc1
Second: COc1ccc(CC(=O)Nc2ccc(F)c(F)c2F)cc1S(=O)(=O)N1CCOCC1
The “hERG current change (%, negative = inhibition) at 10uM” value of the first is lower: -18.6% for the first, -16.8% for the second.

Going from Cc1ccc(C(=O)N2CCN(Cc3nc4sc5c(c4c(=O)[nH]3)CCCC5)CC2)cc1 to Cc1ccc(/C=C2/C(=N)N3N=C(CC(=O)N4CCCC4)SC3=NC2=O)cc1, the “hERG current change (%, negative = inhibition) at 10uM” value rises from -76% to 12.7%.

Going from CCO[C@H]1OC(C(=O)NCc2nc3ccccc3[nH]2)=C[C@@H](c2ccc3c(c2)OCO3)[C@@H]1CCCO to CC1(C)C(O)=C(c2nc3ccccc3[nH]2)C(=N)N1c1ccccc1, the “hERG current change (%, negative = inhibition) at 10uM” value rises from -28.9% to -7.22%.

First: O=C(Nc1cccc(C(F)(F)F)c1)c1ccc(-n2cncn2)nc1
Second: COc1ccc(C2CC(C(F)(F)F)n3ncc(C(=O)NCc4cccnc4)c3N2)cc1OC (stereo not drawn)
The “hERG current change (%, negative = inhibition) at 10uM” value of the first is lower: -19.5% for the first, 4.49% for the second.

Going from COc1ccc(C(CNC(=O)C(Cc2ccccc2)NC(N)=O)N(C)C)cc1 (stereo not drawn) to CCC(=O)Nc1ccc(NC(=S)NC(=O)Cc2ccccc2)cc1, the “hERG current change (%, negative = inhibition) at 10uM” value falls from 12.3% to 11.8%.

First: CC(=O)N1c2ccc([N+](=O)[O-])cc2NC(=O)CC1C (stereo not drawn)
Second: Cc1cc(C)c(NC(=O)COC(=O)C2CCC(=O)N2)c(C)c1 (stereo not drawn)
The “hERG current change (%, negative = inhibition) at 10uM” value of the first is higher: 22.2% for the first, -7.5% for the second.

Compared with O=C(CCN1C(=O)/C(=C/c2ccccc2)SC1=S)NNC(=O)c1ccncc1, COc1ccc(NC(=O)CSc2nc(N)c(NC(=O)c3cccs3)c(=O)[nH]2)cc1 is higher in “hERG current change (%, negative = inhibition) at 10uM” value: 7.05% for the first, 9.34% for the second.

Going from COc1ccc(N(C(=O)c2ccco2)S(=O)(=O)c2cc(Cl)c(Cl)cc2Cl)cc1 to COc1ccc2oc(C(=O)OCC(=O)NCCc3ccc(S(N)(=O)=O)cc3)c(C)c2c1, the “hERG current change (%, negative = inhibition) at 10uM” value rises from -8.39% to 13.5%.

First: Cc1ccc(Sc2ncccc2C(=O)N(C)Cc2cccs2)c(C)c1
Second: COc1ccc(OCCCC(=O)ON=C(N)c2ccccc2C)cc1
The “hERG current change (%, negative = inhibition) at 10uM” value of the first is lower: -6.44% for the first, -5.48% for the second.

Compared with CCOc1ccc(S(=O)(=O)Nc2ccc(C(=O)NCC(c3ccco3)N3CCCCC3)cc2)cc1 (stereo not drawn), CC(C)C(NC(=O)c1ccccc1)C(=O)OCC(=O)N1CCCCC1 (stereo not drawn) is higher in “hERG current change (%, negative = inhibition) at 10uM” value: -25.1% for the first, 16.9% for the second.

Going from CCn1c(SCC(=O)N2CCOCC2)nnc1-c1ccco1 to O=C(Cc1ccccc1)NCC(=O)N1CCC1, the “hERG current change (%, negative = inhibition) at 10uM” value rises from -19.3% to 8.63%.

Going from Cc1cccnc1NC(=S)Nc1ncccc1C to Cc1ccccc1Nc1c([N+](=O)[O-])cncc1[N+](=O)[O-], the “hERG current change (%, negative = inhibition) at 10uM” value falls from 11.4% to -16.3%.

Going from CS(=O)(=O)N(CC(=O)NCc1cccnc1)Cc1ccc(Cl)cc1 to CSc1ccc(CCNC(=O)c2nn(C)c3c2CS(=O)(=O)c2ccccc2-3)cc1, the “hERG current change (%, negative = inhibition) at 10uM” value falls from -30.1% to -48.2%.

Going from Cc1cccc(CSc2ncnc3c2cnn3Cc2ccccc2)c1 to Cc1ccc(CSc2nnc(SCC(=O)N/N=C/C=C/c3ccccc3[N+](=O)[O-])s2)cc1, the “hERG current change (%, negative = inhibition) at 10uM” value rises from 4.43% to 15.5%.

Compared with CCN(CC)CCCN1CC(O)=C(c2nc3ccccc3s2)C1=N, O=C1Nc2cc(Cl)c(Cl)cc2N(O)N1c1ccccc1 is higher in “hERG current change (%, negative = inhibition) at 10uM” value: -34.2% for the first, 16% for the second.

First: COC(=O)c1c(NC(=O)Cc2cccs2)sc(C)c1C
Second: CC(C)N(C)C(=O)C(=O)c1cccn1-c1cccc(Cl)c1C#N
The “hERG current change (%, negative = inhibition) at 10uM” value of the first is lower: -3.56% for the first, 10.4% for the second.

Going from Cc1ccc(Cl)cc1N1CCN(S(=O)(=O)c2cccc(S(=O)(=O)N3CCCC3)c2)CC1 to CCN1C(=O)[C@@H]2[C@@H](c3ccc(-c4ccc(F)cc4)cc3)N3CCCC[C@@]3(C(=O)OC)[C@@H]2C1=O.O=C(O)C(F)(F)F, the “hERG current change (%, negative = inhibition) at 10uM” value falls from 2.64% to -7.48%.

In the case of COc1ccc(/C=N/NC(=O)c2cccnc2)cc1O, the “hERG current change (%, negative = inhibition) at 10uM” value was 11.1%.
